Source: paper PMC8176763
These are yes or no findings as the source states them, for the method shown. Binding seen in cells or lysates may run through a third protein. Some entries that bind do so weakly or less than the wild type.

Chains of the proteins cited; added tags and fusions are not shown. Lines headed by an entry give the natural chain unless they say otherwise; changes in a name come on top. A line that says so, or that is headed by a name, gives the form on record, which may keep a tag or linker.
Src homology region 2 domain-containing phosphatase-1 (Shp1), endogenous (human (endogenous in A375MM)) (P29350, form named): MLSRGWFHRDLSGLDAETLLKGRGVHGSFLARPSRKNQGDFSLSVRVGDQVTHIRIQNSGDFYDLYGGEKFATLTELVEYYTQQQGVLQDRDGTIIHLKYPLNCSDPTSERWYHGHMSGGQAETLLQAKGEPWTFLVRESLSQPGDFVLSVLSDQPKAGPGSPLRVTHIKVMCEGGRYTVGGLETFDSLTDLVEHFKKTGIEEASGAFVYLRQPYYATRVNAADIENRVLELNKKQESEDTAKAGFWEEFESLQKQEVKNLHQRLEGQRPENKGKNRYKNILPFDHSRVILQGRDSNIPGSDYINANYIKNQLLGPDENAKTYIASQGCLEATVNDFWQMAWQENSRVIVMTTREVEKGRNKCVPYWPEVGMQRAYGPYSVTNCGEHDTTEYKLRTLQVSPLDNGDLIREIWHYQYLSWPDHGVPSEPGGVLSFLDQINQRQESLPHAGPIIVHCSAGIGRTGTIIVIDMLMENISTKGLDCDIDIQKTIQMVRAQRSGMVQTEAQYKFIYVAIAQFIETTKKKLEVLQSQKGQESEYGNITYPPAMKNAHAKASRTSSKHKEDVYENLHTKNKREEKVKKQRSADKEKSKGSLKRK
UniProt Q05397: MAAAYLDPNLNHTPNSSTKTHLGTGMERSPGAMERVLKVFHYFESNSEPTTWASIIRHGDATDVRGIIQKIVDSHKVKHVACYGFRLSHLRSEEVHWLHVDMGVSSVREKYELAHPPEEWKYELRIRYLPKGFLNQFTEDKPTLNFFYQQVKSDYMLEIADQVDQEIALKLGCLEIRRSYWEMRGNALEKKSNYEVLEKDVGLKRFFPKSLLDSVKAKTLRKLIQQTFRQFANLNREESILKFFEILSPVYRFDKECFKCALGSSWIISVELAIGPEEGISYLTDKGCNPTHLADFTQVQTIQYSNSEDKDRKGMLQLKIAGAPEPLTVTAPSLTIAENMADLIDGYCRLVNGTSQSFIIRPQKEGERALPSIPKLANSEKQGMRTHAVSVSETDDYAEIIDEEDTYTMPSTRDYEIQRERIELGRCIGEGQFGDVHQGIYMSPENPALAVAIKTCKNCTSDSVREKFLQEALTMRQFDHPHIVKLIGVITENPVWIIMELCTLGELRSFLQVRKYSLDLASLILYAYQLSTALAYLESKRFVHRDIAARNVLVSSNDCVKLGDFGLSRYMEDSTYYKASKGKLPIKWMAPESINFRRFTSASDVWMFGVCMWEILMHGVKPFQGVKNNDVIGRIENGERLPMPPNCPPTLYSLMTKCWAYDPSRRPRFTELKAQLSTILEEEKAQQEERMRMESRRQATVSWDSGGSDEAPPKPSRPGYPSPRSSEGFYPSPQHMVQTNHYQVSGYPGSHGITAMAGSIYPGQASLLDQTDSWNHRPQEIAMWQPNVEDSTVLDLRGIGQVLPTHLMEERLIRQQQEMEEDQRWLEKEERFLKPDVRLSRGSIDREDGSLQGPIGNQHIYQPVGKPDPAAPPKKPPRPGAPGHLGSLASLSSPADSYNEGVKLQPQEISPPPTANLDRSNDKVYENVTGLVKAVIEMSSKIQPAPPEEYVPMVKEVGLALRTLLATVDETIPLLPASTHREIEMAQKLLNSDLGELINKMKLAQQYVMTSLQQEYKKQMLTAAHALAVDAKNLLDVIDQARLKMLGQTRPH
UniProt P27361: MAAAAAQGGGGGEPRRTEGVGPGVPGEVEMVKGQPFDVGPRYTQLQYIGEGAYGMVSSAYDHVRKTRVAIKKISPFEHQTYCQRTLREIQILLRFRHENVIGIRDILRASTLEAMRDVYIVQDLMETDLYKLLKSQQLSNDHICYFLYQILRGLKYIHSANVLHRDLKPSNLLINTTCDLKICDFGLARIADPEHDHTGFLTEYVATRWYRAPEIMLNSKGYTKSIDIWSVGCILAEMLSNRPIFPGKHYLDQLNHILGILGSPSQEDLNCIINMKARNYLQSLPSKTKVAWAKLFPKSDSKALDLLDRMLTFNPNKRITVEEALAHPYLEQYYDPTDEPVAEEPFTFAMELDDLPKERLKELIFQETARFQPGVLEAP
UniProt Q14247: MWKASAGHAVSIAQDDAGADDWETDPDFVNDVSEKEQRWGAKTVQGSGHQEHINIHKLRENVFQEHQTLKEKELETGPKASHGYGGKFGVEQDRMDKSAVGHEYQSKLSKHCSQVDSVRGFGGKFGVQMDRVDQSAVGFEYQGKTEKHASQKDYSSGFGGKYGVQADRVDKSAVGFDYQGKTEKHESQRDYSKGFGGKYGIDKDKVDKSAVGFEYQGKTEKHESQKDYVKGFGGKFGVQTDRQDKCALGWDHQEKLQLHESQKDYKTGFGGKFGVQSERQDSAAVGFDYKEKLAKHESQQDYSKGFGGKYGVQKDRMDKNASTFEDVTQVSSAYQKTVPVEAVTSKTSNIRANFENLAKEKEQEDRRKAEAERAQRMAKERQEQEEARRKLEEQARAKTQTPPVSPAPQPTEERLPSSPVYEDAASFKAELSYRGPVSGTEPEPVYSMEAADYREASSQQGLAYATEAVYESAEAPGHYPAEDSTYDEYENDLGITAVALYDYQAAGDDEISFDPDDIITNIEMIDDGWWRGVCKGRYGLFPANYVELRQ
UniProt P60953: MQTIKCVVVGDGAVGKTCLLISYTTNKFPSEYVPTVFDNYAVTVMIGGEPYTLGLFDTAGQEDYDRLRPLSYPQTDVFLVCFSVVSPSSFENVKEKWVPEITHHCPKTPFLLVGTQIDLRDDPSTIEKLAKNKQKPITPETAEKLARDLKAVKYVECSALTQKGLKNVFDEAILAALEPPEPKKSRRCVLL
UniProt P28482: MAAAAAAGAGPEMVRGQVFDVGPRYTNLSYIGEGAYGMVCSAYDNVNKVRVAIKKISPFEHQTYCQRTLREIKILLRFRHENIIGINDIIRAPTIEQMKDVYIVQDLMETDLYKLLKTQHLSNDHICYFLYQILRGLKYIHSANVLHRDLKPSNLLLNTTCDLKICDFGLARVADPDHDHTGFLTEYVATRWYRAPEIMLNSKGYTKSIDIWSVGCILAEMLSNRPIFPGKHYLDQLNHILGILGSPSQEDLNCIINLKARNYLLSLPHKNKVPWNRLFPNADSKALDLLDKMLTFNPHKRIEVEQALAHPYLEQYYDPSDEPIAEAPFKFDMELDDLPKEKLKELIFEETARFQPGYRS

Legend:
[1] = biological target: Src homology region 2 domain-containing phosphatase-1 (Shp1), endogenous (human (endogenous in A375MM)) (UniProt P29350); assay: co-IP; A375MM cells on gelatin-coated dishes for 16 h; 1 mg lysate with 2 μg anti-Shp1 polyclonal antibody O/N at 4 °C, protein A Sepharose; lysis buffer 20 mM Tris-HCl pH 8.0, 150 mM NaCl, 1% Triton-X100; western blot
[2] = biological target: Src homology region 2 domain-containing phosphatase-1 (Shp1), endogenous (human (endogenous in A375MM)) (UniProt P29350); assay: proximity ligation; Duolink in situ PLA on fixed A375MM cells on fluorescent gelatin, rabbit anti-Shp1 and mouse anti-cortactin; untreated or 50 μM GroPIns for 1 h; IgG as negative control

Substance	binding [1]	binding [2]
focal adhesion kinase (FAK), endogenous (from UniProt Q05397 1-1052) (enzyme)	no binding	–
Erk1, endogenous (from UniProt P27361 1-379) (enzyme)	no binding	–
cortactin, endogenous (from UniProt Q14247 1-550)	binds	binds

The remaining lines, values ahead:

binding [1]	binding [2]	Substance
no binding	–	Cdc42, endogenous (from UniProt P60953 1-191)
no binding	–	Erk2, endogenous (from UniProt P28482 1-360) (enzyme)
